Experimental data reported in PubChem BioAssay AID588579 (National Center for Advancing Translational Sciences (NCATS), 2011).
The campaign covered roughly 400,000 compounds. About 2,200 (0.55%) were called active. The shares of active, inactive and inconclusive entries below differ from those in the screen. Calls come from the whole dose curve; as a rule, active = well fitted inhibition curve with a large enough effect; inconclusive = small, poorly fitted or top-dose-only effect, or another doubt; inactive = no such curve, though single readings can be large or run the other way. Potencies beside an inconclusive call are fits to weak or partial responses and may not hold up.

biological target: DNA polymerase kappa (Homo sapiens) (UniProt Q9UBT6); test: qHTS for Inhibitors of Polymerase Kappa; conditions: purified Pol kappa, fluorescent DNA synthesis assay, 10 min; series mostly up to 107 µM
UniProt Q9UBT6, sequence (Q9UBT6 whole entry, looked up): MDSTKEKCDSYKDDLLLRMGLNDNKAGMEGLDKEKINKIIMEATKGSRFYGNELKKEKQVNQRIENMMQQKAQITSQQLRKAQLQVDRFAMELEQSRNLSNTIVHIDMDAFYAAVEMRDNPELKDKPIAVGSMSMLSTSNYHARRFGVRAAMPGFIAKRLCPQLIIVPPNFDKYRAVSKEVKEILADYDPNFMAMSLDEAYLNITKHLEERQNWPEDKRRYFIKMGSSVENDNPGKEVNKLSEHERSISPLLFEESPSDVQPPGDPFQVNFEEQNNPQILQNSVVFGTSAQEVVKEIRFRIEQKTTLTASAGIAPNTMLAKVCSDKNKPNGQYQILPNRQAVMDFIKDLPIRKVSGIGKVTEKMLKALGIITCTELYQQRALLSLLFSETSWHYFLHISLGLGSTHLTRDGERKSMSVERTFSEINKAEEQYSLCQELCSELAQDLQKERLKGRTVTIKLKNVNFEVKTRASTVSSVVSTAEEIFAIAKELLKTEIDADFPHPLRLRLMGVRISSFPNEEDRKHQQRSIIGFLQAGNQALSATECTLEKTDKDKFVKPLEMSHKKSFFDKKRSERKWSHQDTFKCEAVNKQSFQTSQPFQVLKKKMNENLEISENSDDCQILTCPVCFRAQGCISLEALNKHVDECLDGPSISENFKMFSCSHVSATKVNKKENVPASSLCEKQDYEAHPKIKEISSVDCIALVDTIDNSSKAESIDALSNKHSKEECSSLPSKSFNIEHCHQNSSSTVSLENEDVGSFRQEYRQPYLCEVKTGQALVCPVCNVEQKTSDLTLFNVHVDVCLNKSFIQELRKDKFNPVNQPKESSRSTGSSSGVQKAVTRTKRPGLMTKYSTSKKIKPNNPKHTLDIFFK
Outline: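 Fluorescent qHTS in 1536-well format: enzyme (10 nM) and compound sat 15 min at room temperature before 50 nM substrate (final) was added. Signal taken at 0 and 10 min; no-enzyme buffer wells were negative controls.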
Potency is the fitted concentration of half-maximal effect; tags give direction and shape of the fitted curve.

| Structure (SMILES) | Potency |
| --- | --- |
| CCN(CC)C(=O)CC(c1ccc(N(C)C)cc1)c1c(OC)cc(OC)c2c(-c3ccccc3)cc(=O)oc12 (stereo not drawn) | inactive |
| O=C(C[n+]1ccc2ccccc2c1)c1ccc(O)c(O)c1 | inconclusive: 2.24 µM [inhibitor, partial curve, poor fit] |
| COCC(=O)N(C)C1(c2nnnn2CCOC(=O)Nc2cccc3ccccc23)CCCC1 | inconclusive: 89.1 µM [inhibitor, single point] |
| NC(=S)n1[nH]c(-c2ccc([N+](=O)[O-])cc2)c(N=Nc2cccc(Cl)c2)c1=O | inconclusive: 89.1 µM [inhibitor, single point] |
| N#CC(C(=O)Nc1ccc(Cl)c(Cl)c1)=C1Nc2ccccc2N1 | inconclusive: 35.5 µM [inhibitor, partial curve, poor fit] |
| CC(C)(C)OC(=O)N1CCC(c2c(C(=O)NCc3ccc4c(c3)OCO4)cnn2-c2ccc(F)cc2F)CC1 | inactive |
| CCc1ccc(-n2c(C)nnc2SCc2nc(-c3ccc(OC)cc3)no2)cc1 | inconclusive: 100 µM [inhibitor, single point] |
| C#CCOCCOCCOCCNc1nc(N2CCN(C(=O)[C@H](CCC(=O)O)n3cc(C(N)CC(C)C)nn3)CC2)nc(N2CCN(C(=O)[C@H](CCC(=O)O)n3cc(C(N)CC(C)C)nn3)CC2)n1 (stereo partly drawn) | inactive |
| CC1=C/C(=C\c2ccc(Br)o2)C(=O)O1 | active: 25.1 µM |
| O=C1c2ccccc2C(=O)c2c1cccc2-n1nnc2ccccc21 | inactive |
| O=C(COC(=O)c1cn(-c2ccccc2)nc1-c1ccccc1)Nc1ncc(Cl)cc1Cl | inconclusive: 100 µM [inhibitor, single point] |
| O=C(O)CCCCCn1c(SCC(=O)c2ccc(O)c(O)c2)nc2ccsc2c1=O | inconclusive: 12.6 µM [inhibitor, full curve, poor fit] |
| COc1cccc2cc(C(=O)C3=C(O)C(=O)N(CCN4CCOCC4)C3c3ccc(C(C)(C)C)cc3)oc12 (stereo not drawn) | inconclusive: 89.1 µM [inhibitor, single point] |
| Cc1c(C(=O)N2CCN(c3ncccn3)CC2)oc2ccc(F)cc12 | inactive |
| COc1ccc(C2C=C(c3ccc(C)cc3)Nc3c(C(=O)Nc4ccccc4)cnn32)cc1 (stereo not drawn) | inconclusive: 89.1 µM [inhibitor, single point] |
| O=C(Nc1ccc2c(c1)OCCO2)c1cc(-n2cnnc2)ccc1Cl | inconclusive: 89.1 µM [inhibitor, partial curve, poor fit] |
| Nc1c(O)ccc2c1C(=O)c1ccccc1C2=O | active: 79.4 µM |
| OCc1ccc(-c2ccc(-c3ccc(CO)s3)o2)s1 | inconclusive: 39.8 µM [inhibitor, single point] |
